Test results taken from paper PMC6919601, “Identification of Plasmodium dipeptidyl aminopeptidase allosteric inhibitors by high throughput screening” (PLoS ONE, 2019).
The campaign covered roughly 110,000 compounds. About 230 (0.21%) showed an effect of 50% or more. The list shows a part of the results.

target: DPAP1 (Plasmodium falciparum, UniProt Q8IIJ9); assay: primary screen, percent inhibition; read by cleavage of a fluorogenic dipeptide substrate; higher = more effect of the substance; parameters: species or system P. falciparum D10 trophozoite lysates; single well
Sequence (Q8IIJ9 whole entry, looked up): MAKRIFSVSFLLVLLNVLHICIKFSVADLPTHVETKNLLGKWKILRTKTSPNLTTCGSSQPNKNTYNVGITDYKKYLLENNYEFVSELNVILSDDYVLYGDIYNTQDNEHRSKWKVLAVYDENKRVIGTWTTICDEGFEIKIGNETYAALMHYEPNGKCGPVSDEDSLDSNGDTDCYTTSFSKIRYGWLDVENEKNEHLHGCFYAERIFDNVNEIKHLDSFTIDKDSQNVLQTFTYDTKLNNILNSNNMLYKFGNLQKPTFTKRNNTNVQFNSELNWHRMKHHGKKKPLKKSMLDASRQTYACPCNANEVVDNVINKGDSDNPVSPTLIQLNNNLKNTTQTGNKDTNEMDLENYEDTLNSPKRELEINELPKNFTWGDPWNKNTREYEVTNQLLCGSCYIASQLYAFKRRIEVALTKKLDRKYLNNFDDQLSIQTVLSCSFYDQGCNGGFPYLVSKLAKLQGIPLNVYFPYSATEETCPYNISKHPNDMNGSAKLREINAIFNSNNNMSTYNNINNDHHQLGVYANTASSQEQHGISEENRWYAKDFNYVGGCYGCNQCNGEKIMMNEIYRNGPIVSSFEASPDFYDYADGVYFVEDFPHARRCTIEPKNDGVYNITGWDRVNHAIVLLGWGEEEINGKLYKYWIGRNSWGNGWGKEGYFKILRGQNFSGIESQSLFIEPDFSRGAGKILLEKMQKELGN
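Also: 30 min substrate incubation versus DMSO and 10 µM JCP410 controls.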

SMILES | % Inhibition @ 10 uM [%]
Cc1ccsc1C(C#N)NC(=O)[C@H](CC(C)C)NC(=O)OCc1ccccc1 (some centres unmarked) | -1.41
COc1cccc(CN2CCN(C(=O)c3ccccc3OC)CC2)c1 | -1.98
C/C(=N\c1ccc(N(C)C)cc1)C1=C(O)c2ccccc2C1=O | -2.24
COc1ccc(CN2Cc3ccccc3C2)cc1 | -2.25
COc1ccc(CCNCc2cccs2)cc1OC | 0.163
Cc1ccc(NC(=O)c2cc(-c3cccs3)nc3ccccc23)cc1Cl | -0.267
CCSc1nnc(NC(=O)c2cccc(F)c2)s1 | -0.48
COc1ccc(CNC(=O)c2cc(S(=O)(=O)N3CCCC(C)C3)ccc2F)cc1 (centres unmarked) | 1.42
COCCNC(=O)C1=CC(c2ccc(C)cc2)=NS(=O)(=O)N1C | -1.06
O=C(NCc1nc(-c2ccccc2)no1)c1ccc(Br)o1 | 2.14
CCOC(=O)N1CCN(C2CCCc3c2[nH]c2ccc(C)cc32)CC1 (centres unmarked) | -2.88
COc1ccc2c(c1)c1nc3cc4ccccc4cc3nc1n2C | -4.11
N#C/C(=C\c1[nH]c2ccccc2c1O)C(=N)N1CCOCC1 | 5.37
O=C(C1=C(O)C(=O)N(CCOCCO)C1c1ccccc1Cl)c1ccc(Br)cc1 (centres unmarked) | -3.71
Cc1cc(C)c(S(=O)(=O)N2CCCCCC2)cc1S(=O)(=O)N1CCCCCC1 | 0.526
COc1cc(C(=O)OCCCn2c(=O)c3c(ncn3CCN(C)C)n(C)c2=O)cc(OC)c1OC | 2.14
CC(CCc1ccccc1)NC(=S)Nc1cccnc1 (centres unmarked) | -6.42
COc1ccc(CNc2nc(-c3ccco3)nn2C(=O)COc2ccccc2)cc1 | 1.9
COc1ccc(CNC(=O)c2oc3ccc4nc(N(C)C)sc4c3c2C)cc1 | 4.33
COc1ccc(C)c2sc(N(CCN(C)C)C(=O)c3ccc(Br)s3)nc12 | 6.55
O=C(Nc1ccc(Cl)cc1)Nc1nc(-c2ccccc2)cs1 | 0.962
COC(=O)c1nnn(-c2ccc(C(C)C)cc2)c1C(=O)OC | 0.163
COc1ccccc1-c1nnc2sc(COc3ccccc3C)nn12 | 2.68
Cc1cc(C(F)F)nn1CC(=O)NC(C)C1CC2CCC1C2 (centres unmarked) | 7.03
O=C1NC(=O)C(=Cc2cn(Cc3ccccc3)c3ccccc23)C(=O)N1 | 4.41
COc1ccc2c(c1)c1c3n2CCNC3CCC1 (centres unmarked) | 5.8
CN1CCC2(CC1)CC1CC3C=CC1(CN2)O3 (centres unmarked) | -7.09
CN1CCN(C(=O)c2ccc(N(C)S(C)(=O)=O)cc2)CC1 | 2.27
O=C(NCCCSC1CCCCC1)c1ccc(CS(=O)(=O)Cc2cccc(Cl)c2)o1 | 0.718
